In publication PMC4336329 (PLoS ONE, 2015):
Screen size: about 310,000 compounds; about 2,200 (0.71%) showed an effect of 50% or more. Effects have a minus sign here. The list shows a part of the results.

Biological target: human ether-à-go-go-related gene (hERG) potassium channel (human, UniProt Q12809)
Assay: primary screen, population patch clamp on CHO cells stably expressing hERG

Chain of human ether-à-go-go-related gene (hERG) potassium channel (Q12809 whole entry, looked up): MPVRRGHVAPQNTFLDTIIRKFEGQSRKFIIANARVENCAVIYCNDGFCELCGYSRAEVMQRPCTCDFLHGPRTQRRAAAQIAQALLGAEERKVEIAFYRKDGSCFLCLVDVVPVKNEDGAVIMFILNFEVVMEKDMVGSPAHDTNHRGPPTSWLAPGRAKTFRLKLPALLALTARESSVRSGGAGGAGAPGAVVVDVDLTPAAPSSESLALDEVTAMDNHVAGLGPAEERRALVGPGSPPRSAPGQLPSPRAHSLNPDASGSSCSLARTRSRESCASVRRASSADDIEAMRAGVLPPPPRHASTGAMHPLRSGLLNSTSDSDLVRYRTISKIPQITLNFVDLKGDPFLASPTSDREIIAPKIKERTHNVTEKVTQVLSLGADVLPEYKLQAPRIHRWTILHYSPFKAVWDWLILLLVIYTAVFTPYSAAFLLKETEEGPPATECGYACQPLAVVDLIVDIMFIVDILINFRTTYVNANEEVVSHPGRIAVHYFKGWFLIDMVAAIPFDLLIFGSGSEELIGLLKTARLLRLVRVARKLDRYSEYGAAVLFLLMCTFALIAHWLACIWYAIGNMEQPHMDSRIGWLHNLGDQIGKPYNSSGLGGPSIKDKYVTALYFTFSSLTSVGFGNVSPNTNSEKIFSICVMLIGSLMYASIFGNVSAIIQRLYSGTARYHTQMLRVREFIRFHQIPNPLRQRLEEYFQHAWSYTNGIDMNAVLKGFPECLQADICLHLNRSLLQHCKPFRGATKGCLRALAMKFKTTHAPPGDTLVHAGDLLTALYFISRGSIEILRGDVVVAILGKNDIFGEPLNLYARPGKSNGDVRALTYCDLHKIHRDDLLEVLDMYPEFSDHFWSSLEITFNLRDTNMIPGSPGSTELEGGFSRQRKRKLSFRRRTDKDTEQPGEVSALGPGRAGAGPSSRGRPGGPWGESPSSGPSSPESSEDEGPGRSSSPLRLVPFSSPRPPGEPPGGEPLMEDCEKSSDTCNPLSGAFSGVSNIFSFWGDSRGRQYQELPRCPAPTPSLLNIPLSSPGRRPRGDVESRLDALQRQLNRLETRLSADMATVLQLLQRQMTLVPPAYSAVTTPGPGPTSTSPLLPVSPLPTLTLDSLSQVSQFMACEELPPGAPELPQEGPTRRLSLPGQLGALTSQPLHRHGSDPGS

SMILES | hERG current change (%, negative = inhibition) at 1uM [%]
CN1CCN(c2nc(Nc3ccc(F)cc3)nc(Nc3ccc(F)cc3)n2)CC1 | -0.878
CN(Cc1ccccc1)c1ccc(C(CC(N)=O)NC(=O)c2ccccc2)cc1[N+](=O)[O-] (stereo not drawn) | 10.5
CC(CCCN(C)C)C(Cc1ccccc1)c1ccccc1.Cl (stereo not drawn) | 9.89
CCOc1ccc(CCNC(=O)C2CCN(S(=O)(=O)N3CCOCC3)CC2)cc1OCC | 10.4
COc1ccc(NC(=O)COc2coc(CN3CCN(c4ccccc4)CC3)cc2=O)cc1 | 11.3
O=C(NCc1ccco1)c1ccccc1SCC(=O)N1CCCC1 | 6.45
COCC(C)n1c(SCC(=O)N(C)C2CCS(=O)(=O)C2)nc2ccccc2c1=O (stereo not drawn) | 4.54
Cc1c(N2C(=O)CSC2c2ccccc2)c(=O)n(-c2ccccc2)n1C (stereo not drawn) | 13.2
Cc1ccc(NC(=O)/C(=C\c2ccccc2)NC(=O)c2ccco2)cc1 | 9.83
O=C(O)c1ccc2c(=O)n3c(nc2c1)/C(=C/c1ccc(C(F)(F)F)cc1)CC3 | 9.18
Cc1ccsc1C(=O)N1CCN(S(=O)(=O)c2cccc(F)c2)CC1 | 5
CCn1c2ccccc2c2cc(NC(=O)Cc3ccc(S(=O)(=O)N4CCOCC4)s3)ccc21 | 8.14
COc1ccc(N2C(=O)CC(C#N)=C2N)cc1 | 13.5
COCCNC(=O)COC(=O)/C=C/c1c(C)nn(Cc2ccc(Cl)cc2Cl)c1Cl | -5.52
CCOC(=O)C1CCN(S(=O)(=O)c2ccc(-c3ccccn3)s2)CC1 | 1.29
CC(C)(C)c1[nH]ncc1[N+](=O)[O-] | 5.4
O=C(NCCN1CCCC1)c1ccc2c(c1)N(Cc1cccc(Cl)c1)C(=O)c1ccccc1S2(=O)=O | 13.5
CCNC(=S)NNC(=S)NCc1ccccc1 | 11
COCCn1nnnc1C(c1cccs1)N1CCN(c2nc3ccccc3s2)CC1 (stereo not drawn) | 0.667
Cc1cccc(N(CC(=O)Nc2ccccc2F)S(C)(=O)=O)c1 | 21.7
Cc1nc(N)sc1-c1csc(Nc2ccc(Cl)cn2)n1 | 3.31
Fc1ccccc1/C=N/n1cnnc1 | 13.7
Cn1c(COc2ccc(Cl)cc2)nnc1SCC(=O)NC1CCCCC1 | 1.21

SMILES | hERG current change (%, negative = inhibition) at 1uM [%]
CC(=O)Nc1ccc(OCC(=O)NC(C)C(C)C)cc1 (stereo not drawn) | 13.7
COc1ccc(CC(=O)Nc2nc(C(C)(C)C)cs2)cc1 | 5.06
CCCCOc1ccccc1C1C(C(=O)OC)=C(C)N(C)C(C)=C1C(=O)OC | 0.0753
CCN1CCN(C(=S)NCc2ccc(C)cc2)CC1 | 8.05
COc1ccc(N(CC(=O)N2CCOCC2)S(C)(=O)=O)c(OC)c1 | 13
COc1cc(N(C(=O)Cc2cccs2)C(C(=O)NC2CCCCC2)c2ccc(C)cc2)ccc1-n1cnnn1 (stereo not drawn) | 19.9
COc1cc(/C=N\NC(=O)c2ccc(-c3ccccc3)cc2)ccc1OCC(N)=O | 16.1
O=C(Nc1ccc2c(c1)oc1ccccc12)c1ccc2c(c1)OCO2 | 9.05
C/C(=N\NC(=O)c1cc(C)nc2ccc(C)cc12)c1ccncc1 | 14.8
COc1ccc(N=C2SC(C(=O)N3CCN(c4ccccc4)CC3)CC(=O)N2C)cc1 (stereo not drawn) | 11.8
Cn1nnc(NC(=O)/C=C/c2ccco2)n1 | 11.7
N#C/C(=C/c1ccc(CNS(=O)(=O)c2ccccc2)o1)C(N)=O | 11.6
CCOC(=O)C1CSC(CC(=O)Nc2ccc(Cl)c(Cl)c2)C(=O)N1 (stereo not drawn) | -8.9
COc1cccc(CNC(=O)N2CCN(c3ccccc3)CC2)c1 | 7.85
Cc1ccc2cc(C#N)c(N3CCCN(C(=S)NCCCN(C)C)CC3)nc2c1 | 10.6
CN(C)CCCOc1cccc(Cl)c1.O=C(O)C(=O)O | 10.9
CC(C)c1ccc(NC(=O)N2C[C@H]3C[C@@H](C2)c2cccc(=O)n2C3)cc1 | 7.81
COCCN(C(=O)C1CCCO1)c1c(N)n(CC(C)C)c(=O)[nH]c1=O (stereo not drawn) | 7.05
CCC(C)NC(=O)CSc1nc2scc(-c3ccccc3)c2c(=O)[nH]1 (stereo not drawn) | -4.12
Cl.N#CCCN(/N=C/c1cccnc1)C1=NS(=O)(=O)c2ccccc21 | 12.2
COC(=O)c1sccc1S(=O)(=O)NCc1ccc(S(N)(=O)=O)cc1 | 5.9
C[C@H](NC(=O)OC(C)(C)C)c1nnc(SCC(N)=O)o1 | 2.34
